Experimental data: the supplement of paper PMC4967469

Tests used:
Assay in all cases: Viability of human cancer cell lines after 72 h of drug (GDSC screen)
Dasatinib = compound: Cc1nc(Nc2ncc(C(=O)Nc3c(C)cccc3Cl)s2)cc(N2CCN(CCO)CC2)n1 [Dasatinib]; conditions: top dose 1.28 µM
Procedure: (§1)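 Human cancer cell lines in 384-well plates, medium with 10% serum, drug for 72 h over a 256-fold dose range (nine 2-fold or five 4-fold steps up to the top dose). Adherent lines were fixed and stained with the nucleic acid dye Syto60, suspension lines read with resazurin; signal relative to control wells, capped at 0 and 100%. One two-parameter sigmoid per drug and line, fitted in a mixed model over all curves with the slope shared within a line.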

AT-7519 = compound: O=C(NC1CCNCC1)c1n[nH]cc1NC(=O)c1c(Cl)cccc1Cl [AT-7519]; conditions: top dose 10.24 µM; top dose inferred
Procedure: as §1

XMD14-99 = compound: COc1cc(N2CCN(C)CC2)ccc1Nc1nc(N)c(C(=O)c2c(Cl)cccc2Cl)s1 [XMD14-99]; conditions: top dose 10.24 µM; top dose inferred
Procedure: as §1

A-443654 = compound: Cc1n[nH]c2ccc(-c3cncc(OC[C@@H](N)Cc4c[nH]c5ccccc45)c3)cc12 [A-443654]; conditions: top dose 1.024 µM; top dose inferred
Procedure: as §1

FH535 = compound: Cc1cc([N+](=O)[O-])ccc1NS(=O)(=O)c1cc(Cl)ccc1Cl [FH535]; conditions: top dose 32 µM; top dose inferred
Procedure: as §1

Row | Cell Line | AUC (Dasatinib) | IC50 (Dasatinib) [nM] | AUC (AT-7519) | IC50 (AT-7519) [nM] | AUC (XMD14-99) | IC50 (XMD14-99) [nM] | AUC (A-443654) | IC50 (A-443654) [nM] | AUC (FH535) | IC50 (FH535) [nM]
1 | NCI-H1355 (lung adenocarcinoma, adherent) | 0.485 | 71.3 | 0.928 | > 10200 | 0.976 | > 10200 | 0.551 | 93.6 | 0.543 | 2770
2 | NEC8 (testis, adherent) | 0.96 | > 1280 | 0.381 | 318 | 0.991 | > 10200 | 0.945 | > 1020 | 0.845 | 18100
3 | MFM-223 (breast, adherent) | 0.988 | > 1280 | 0.935 | > 10200 | 0.978 | > 10200 | 0.829 | 626 | 0.898 | > 32000
4 | KMS-12-BM (myeloma, suspension) | 0.978 | > 1280 | 0.356 | 276 | 0.979 | > 10200 | 0.639 | 144 | 0.687 | 6020
5 | LU-65 (large cell lung carcinoma, suspension) | 0.986 | > 1280 | 0.601 | 1270 | 0.985 | > 10200 | 0.859 | > 1020 | 0.876 | > 32000
6 | LB831-BLC (bladder, adherent) | 0.423 | 49 | 0.537 | 809 | 0.987 | > 10200 | 0.684 | 212 | 0.482 | 1780
7 | MS-1 (small cell lung carcinoma, suspension) | 0.989 | > 1280 | 0.875 | 8240 | 0.983 | > 10200 | 0.901 | > 1020 | 0.842 | 19100
8 | C2BBe1 (large intestine, adherent) | 0.513 | 87.3 | 0.952 | > 10200 | 0.984 | > 10200 | 0.916 | > 1020 | 0.729 | 9890
9 | IST-SL1 (small cell lung carcinoma, semi-adherent) | 0.973 | > 1280 | 0.498 | 633 | 0.93 | > 10200 | 0.79 | 472 | 0.856 | 26900
10 | NCI-H1666 (lung adenocarcinoma, semi-adherent) | 0.965 | > 1280 | 0.84 | 8080 | 0.987 | > 10200 | 0.986 | > 1020 | 0.891 | > 32000
11 | NCI-H187 (small cell lung carcinoma, suspension) | 0.982 | > 1280 | 0.481 | 567 | 0.982 | > 10200 | 0.758 | 384 | 0.769 | 13100
12 | SK-UT-1 (soft tissue, adherent) | 0.871 | 1020 | 0.752 | 3130 | 0.987 | > 10200 | 0.544 | 83.2 | 0.505 | 2070
13 | SHP-77 (small cell lung carcinoma, semi-adherent) | 0.991 | > 1280 | 0.96 | > 10200 | 0.989 | > 10200 | 0.922 | > 1020 | 0.872 | 25100
14 | MOLP-8 (myeloma, suspension) | 0.858 | 986 | 0.243 | 120 | 0.893 | > 10200 | 0.393 | 32.9 | 0.74 | 9420
15 | EKVX (lung adenocarcinoma, adherent) | 0.97 | > 1280 | 0.871 | > 10200 | 0.969 | > 10200 | 0.89 | > 1020 | 0.667 | 10000
16 | DSH1 (bladder, adherent) | 0.644 | 196 | 0.622 | 1370 | 0.984 | > 10200 | 0.733 | 284 | 0.398 | 1060
17 | CL-11 (large intestine, adherent) | 0.959 | > 1280 | 0.98 | > 10200 | 0.985 | > 10200 | 0.955 | > 1020 | 0.916 | > 32000
18 | IA-LM (large cell lung carcinoma, adherent) | 0.947 | > 1280 | 0.78 | 4780 | 0.969 | > 10200 | 0.687 | 229 | 0.559 | 2960
19 | TGW (neuroblastoma, adherent) | 0.943 | > 1280 | 0.856 | 6450 | 0.972 | > 10200 | 0.834 | 537 | 0.872 | 23300
20 | 8-MG-BA (glioma, adherent) | 0.605 | 152 | 0.503 | 652 | 0.958 | > 10200 | 0.64 | 152 | 0.611 | 3950
21 | KMOE-2 (acute myeloid leukaemia, suspension) | 0.99 | > 1280 | 0.491 | 605 | 0.99 | > 10200 | 0.885 | 907 | 0.626 | 4270
22 | NCI-H1876 (small cell lung carcinoma, adherent) | 0.934 | > 1280 | 0.551 | 885 | 0.976 | > 10200 | 0.734 | 301 | 0.847 | 23900
23 | TE-8 (oesophagus, adherent) | 0.299 | 20.7 | 0.932 | > 10200 | 0.971 | > 10200 | 0.651 | 173 | 0.678 | 6520
24 | SK-MM-2 (myeloma, suspension) | 0.983 | > 1280 | 0.786 | 4630 | 0.925 | > 10200 | 0.846 | 798 | 0.89 | > 32000
25 | SU-DHL-6 (B-cell lymphoma, suspension) | 0.098 | 7.11 | 0.141 | 78.4 | 0.944 | > 10200 | 0.41 | 38.7 | 0.787 | 10300

Row | Cell Line | AUC (Dasatinib) | IC50 (Dasatinib) [nM] | AUC (AT-7519) | IC50 (AT-7519) [nM] | AUC (XMD14-99) | IC50 (XMD14-99) [nM] | AUC (A-443654) | IC50 (A-443654) [nM] | AUC (FH535) | IC50 (FH535) [nM]
26 | RH-1 (rhabdomyosarcoma, adherent) | 0.984 | > 1280 | 0.476 | 557 | 0.983 | > 10200 | 0.99 | > 1020 | 0.766 | 9950
27 | NCI-H720 (lung carcinoid, suspension) | 0.958 | > 1280 | 0.992 | > 10200 | 0.989 | > 10200 | 0.68 | 194 | 0.968 | > 32000
28 | CPC-N (small cell lung carcinoma, suspension) | 0.972 | > 1280 | 0.518 | 721 | 0.982 | > 10200 | 0.889 | > 1020 | 0.893 | > 32000
29 | LOUCY (T-cell lymphoblastic leukaemia, suspension) | 0.992 | > 1280 | 0.039 | < 40 | 0.92 | > 10200 | 0.646 | 149 | 0.693 | 6160
30 | SK-MEL-1 (melanoma, suspension) | 0.993 | > 1280 | 0.958 | > 10200 | 0.979 | > 10200 | 0.98 | > 1020 | 0.941 | > 32000
31 | COLO-320-HSR (large intestine, suspension) | 0.983 | > 1280 | 0.915 | > 10200 | 0.982 | > 10200 | 0.857 | 666 | 0.821 | 15400
32 | NB69 (neuroblastoma, adherent) | 0.595 | – | 0.804 | 4430 | 0.973 | > 10200 | 0.714 | 237 | 0.892 | 30200
33 | TE-15 (oesophagus, suspension) | 0.232 | 11.8 | 0.649 | 1750 | 0.937 | > 10200 | 0.509 | 68.1 | 0.565 | 3090
34 | A704 (kidney, adherent) | 0.352 | 31.7 | 0.989 | > 10200 | 0.989 | > 10200 | 0.661 | 177 | 0.462 | 1580
35 | Calu-6 (lung adenocarcinoma, adherent) | 0.831 | 977 | 0.865 | > 10200 | 0.978 | > 10200 | 0.637 | 162 | 0.408 | 1080
36 | JSC-1 (B-cell lymphoma, suspension) | 0.948 | > 1280 | 0.408 | 359 | 0.813 | 5480 | 0.666 | 184 | 0.739 | 9540
37 | SUP-HD1 (Hodgkin lymphoma, suspension) | 0.975 | > 1280 | 0.318 | 204 | 0.955 | > 10200 | 0.64 | 153 | 0.676 | 6040
38 | NCI-H2196 (small cell lung carcinoma, adherent) | 0.95 | > 1280 | 0.71 | 2600 | 0.949 | > 10200 | 0.814 | 594 | 0.879 | > 32000
39 | Ramos-2G6-4C10 (Burkitt lymphoma, suspension) | 0.961 | > 1280 | 0.225 | 118 | 0.975 | > 10200 | 0.647 | 153 | 0.707 | 6910
40 | TE-1 (oesophagus, adherent) | 0.555 | 118 | 0.847 | > 10200 | 0.972 | > 10200 | 0.601 | 131 | 0.687 | 7730
41 | NCI-H322M (lung adenocarcinoma, suspension) | 0.908 | > 1280 | 0.897 | > 10200 | 0.987 | > 10200 | 0.924 | > 1020 | 0.986 | > 32000
42 | TE-11 (oesophagus, adherent) | 0.494 | 77 | 0.963 | > 10200 | 0.988 | > 10200 | 0.608 | 123 | 0.849 | 20800
43 | KURAMOCHI (ovary, adherent) | 0.405 | 42 | 0.657 | 1880 | 0.963 | > 10200 | 0.617 | 141 | 0.452 | 1450
44 | COR-L95 (small cell lung carcinoma, adherent) | 0.986 | > 1280 | 0.634 | 1600 | 0.982 | > 10200 | 0.787 | 523 | 0.965 | > 32000
45 | TE-5 (oesophagus, adherent) | 0.86 | > 1280 | 0.784 | 5050 | 0.982 | > 10200 | 0.627 | 152 | 0.666 | 6270
46 | SH-4 (melanoma, adherent) | 0.621 | 207 | 0.889 | > 10200 | 0.956 | > 10200 | 0.673 | 256 | 0.432 | 1180
47 | ML-2 (acute myeloid leukaemia, suspension) | 0.988 | > 1280 | 0.293 | 181 | 0.953 | > 10200 | 0.671 | 181 | 0.719 | 7670
48 | Hs-445 (Hodgkin lymphoma, suspension) | 0.906 | > 1280 | 0.336 | 232 | 0.962 | > 10200 | 0.658 | 170 | 0.798 | 13900
49 | Mo-T (hairy cell leukaemia, suspension) | 0.987 | > 1280 | 0.609 | 1290 | 0.926 | > 10200 | 0.976 | > 1020 | 0.888 | > 32000

IC50 is the fitted dose that halves viability relative to control wells, and lower means more sensitive; a fit beyond the top or the lowest dose is shown as a bound at that dose. The AUC spans the tested range (256-fold, ending at the top dose) of the same fit; values near 1 show little effect. For part of these data: Where the top dose is marked as inferred, it comes from the curve model; the source does not state it.
